Source: the supplement of paper PMC12632987
The full ranking holds about 4,500 sequences; the median of “median log2 fold change of GCK-ALFA target abundance (FLAG IP / Myc IP barcode read proportion)” is about 0.078, and the lowest 2% start at about -0.6. The list shows a part of the results.

B1: GBRAP_139_3755 (protein)
chain: SKTEEAIKEIVELVKDPNATLEEIEEKVKEIAKELDEESIKKVLKAAAEAAKSLSVERIEELEERFIKILKEEGRSEDVIDFLEGEFNEAAALSAYREEL
B2: GBRAP_184_5258 (protein)
chain: KVLEETVEFENVEELEEKMKEIYERAKASNADVVIHVEVKELTKEMIEALAEQIKKMKDDGYKGKITVGIDADLTEEMVDYTVKLFDEAGANVVLELPEE
B3: GBRAP_184_5118 (protein)
chain: EVVRESVEGTKAEELIRKAEEVVEKAAAEGKRLLLSVFAEDMSVEEIIRVIERLGELKKAHPEVEIILVVENEQSEEEVDKLVAAADAAGVRLVVALKEE
B4: GBRAP_160_4235 (protein)
chain: SEELEELREDITEEFELLLEVLLESPKSQWEAYARAFAGDVVQLVIENPEVSDEAEERVDEIAEQMVEDLIAAKDASPEEIRKLLEEYAEKIIEAVEEEL
B5: GBRAP_57_6442 (protein)
chain: MSRLEKAEELAEEIRRLLEENAPKEEILKKFEKLLELLSKEGLLDLLLLLDPSARADESKEELIKRLLEIFRRALEEEGKEKALEIVDLALGILEMEESE
B6: GBRAP_128_3159 (protein)
chain: SVEEAVARTRELLERIKAASPEEARRLARELAEYFKTLSPEEREAVTAVVLEALPELSLEKLEILADVLEEERPRDDPYLANLFAEVAVEALNEALELEE
B7: GBRAP_125_3125 (protein)
chain: EEEEALEDLARVLRALGFDDEDVAEAVELARRFSIKGTMYAAMKALGYDELADLVEQLSEEETREVVREVAAWLEAHPDATPEEVKAHLLEVARRAVAAS
B8: GBRAP_96_7094 (protein)
chain: SVEEVKKLIEELAANLDKDPEKAKELAKELSKYSEEEIEEALKDVELTPEQAAKIIDIFEEISLEKAEELALALAEAGSSEVSQVALEKLKEIEEEEEEE
B9: GBRAP_39_5710 (protein)
chain: EEKEELELLASYYEAVAAKKQVDAGISLEEFLEEQKKEIEELAKTDPENKEVYERLLKIMEEGNEVDKLIAAGLADALKAGLPKEEAEKIIDEVIRERKE
B10: GBRAP_160_4440 (protein)
chain: SEKLEAAIKEFEEEAAFVKELADEVSVEQFAKALDAEFGSVALELLEKGYITEETFDKIMAIIDEAVATLLANPDMSLEERKALIDETLEKIKEVIKEGA
B11: GBRAP_52_5979 (protein)
chain: MREEARRVARELLALRLAGDEEAARALLREIAATKSPEFIELVFEELARLAETATPEERDAIVELAIDLEDIALEAGFDEAEVDAGLARVAAAAVAALQA
B12: GBRAP_53_6425 (protein)
chain: MEERIRELEERARELAEKATKADEETLLKLTEQIVEVLAELKAAGAPDERIAELAREIARKLKAAGAPDRALVLLAQGMAALGLEEATAAVAEEAVEELE
B13: GBRAP_53_6405 (protein)
chain: SSEEIEKLKEEILKLTEEATKAGPEKAKELVKQIAEAFKKLKEAGASDEEIEKLAKEVAEKLKKAGADPRLFVELAQAYAELGLEEATAIMAEAAVEDLE
B14: GBRAP_57_6461 (protein)
chain: MSNLEKAIEHFDKAIELAKKGAPEEEILEEVKKALDHLDETLVRDILLLLDPEADADLSKEEAKERILEIIRETLKNEGREAAIEKLKLMKGQVEMASIE
B15: GBRAP_11_2634 (protein)
chain: KKEILKKAAETAAKAVKVLEKLLKEGVDNEELIKELKKLLEELEKLVKKLGNKALENDVKVAKELLEEALADPENAEFYINLLKAQMEIIEADLEELLEE
B16: GBRAP_35_5589 (protein)
chain: EDEELILDTLKDYAEATLWALKEEDDETALAMLKAFLKFAKRAIKDLKNNKEALKEIAKLIKEVIAAVKKYRADNPEFQKLLKELEKLLKEAEKLIKKNE
B17: GBRAP_11_2862 (protein)
chain: KKEKLEELLKLAKELIELLEQLIEEGATNEELLEEARKTLEEALKLAKELGDESLIKLAEIALEELEEAERNPETALQHLQEALAAARVLEGQILLLIDE
B18: GBRAP_52_6118 (protein)
chain: MAAELRARLEEALALLKAGREAEARALLAELAAALDEEGLEILAAELAALAAAAPPEDQDAVWRLAELLAEELEAAGWDPGLADDLLARVAAALHAREQA
B19: GBRAP_52_6091 (protein)
chain: MKEELEKKAEEIYEALRAGDLERVTELLKELVENYSDEEVLETIRLTAELMAKEPADERERMLDIFLEALDRVAEETGKEELMDIAEAETAAIMYEALQR
B20: GBRAP_128_3186 (protein)
chain: SVEEVRRYTREAMERIRESDLETAREIARELFERILTLTLEEAEAAIEVIEEMLPELSKEKLEIVADVAREVRPRLTPEKARLVAGLEVEALNRIEELEE
B21: GBRAP_52_6082 (protein)
chain: AEAAIAATADAITAAIAAGDLDGALALFAAAVKTFTAEEIKALLVRTAEKVAALGDDAHELFVDFLDRAEDIMIAAGISEDDALAIVGDAGAALARAVAA
B22: GBRAP_117_2574 (protein)
chain: HMSKEEVKELVRETVEEVIERLKEAEKLSPEEREKVLKELRERMKEVVRIALEVLSREEIEEIVEEALLSADAKTYFEAETIFLDALEEVEEEREREEEE
B23: GBRAP_35_5557 (protein)
chain: SSDEEILEMMTNTAEDAKLTIDDIPVDTAFEITTKIAEAALEILKKEKENVEGAKKLAEAVLDALDALIKRLKEEGAPQEKIEELEKLKEEIEKELKKIK
B24: GBRAP_52_6191 (protein)
chain: MREELREQVLEIYELVKAGKLEEAKKKAEELVKKLNDEELKLLTEVLAEVAKEAPLEDEDAVFKTAELLAEAMEKAGKDEVLAEDLLAAAAAALYEKELA
B25: GBRAP_26_5497 (protein)
chain: FLEEILEELRREIKEILKDESPELQAAVIATAEDLLLEADEEIEENAEDEEKIKEAIEKAVEEMRKELERFGLSEEKIEKIVEALRRALEKVAERIKEEA
B26: GBRAP_80_6855 (protein)
chain: DAARLAAALAALKEVLPEAAATAEEIVALARALGVPDAVIADYLEAMTELAKVDPELAAELLEETLADLRELAAEGDSEGAVAVLRGYAGEALLEAEELE
B27: GBRAP_83_6941 (protein)
chain: KEKIVVAAPGDKVEEAVEAAIDLHEEEGYEVDLEFIFTDEEAEKVLEEVKKVLEKGIEVDITLINTDSNEEALKKLVEEIKKAAKEAGVKVNVEGYVIEP
B28: GBRAP_80_6800 (protein)
chain: AEEELEEYLEEIEELDPELAERVRRIIEEAKEMGVPEEDLAELARAVAELLKVDPELAREEVEELEEELREEKERGDKENARATVRVAAGEMLLRVEELE
B29: GBRAP_128_3341 (protein)
chain: IDEEKLEEVKKLAEEMIKANKEEAKKLAKKLMELLVTLSLEEVEKAVEIIKKLLPKLSAEHLEILADELRKYRPLFSPEQALLINELEVEALNLAEEKEE
B30: GBRAP_83_6954 (protein)
chain: MITVVASSKPESIRSSVKAAIDLHKEEGKEVEIEILLTRENAPAALAALKELIDAGVEAKITLVTREADREAAEALAAEIKAYAAEKGVNVEVELVVEPE
B31: GBRAP_166_4978 (protein)
chain: KEEEIVEEVKKYIDELAEKMKTADYEEKLELLAEAAEKIKEAIDAGISKEQLRELILYLIKKALEVGLTLSDVEGALTIIADLDEEEIDLLDEAIEEVKK
B32: GBRAP_95_7077 (protein)
chain: DEDLEEIEILADTAIDLYEAGLKEQAAKVMKAAIEAAKENGYKVKDKELMTKLLKYFVELALEYFDAEEVEDALEIAKAIGAPQEIIDKLEEILKKLKEK
B33: GBRAP_53_6401 (protein)
chain: KEEKIKELIEEIEKLTEEATKADDEEREKLVKEIGKKLKELKEAGAPEEEIEKLVEKVAKRLKEAGAKDSHLVELAKKLEELGLEEATAKVGELLVEDLE
B34: GBRAP_184_5067 (protein)
chain: ETFEETLEVNNLEEAKKKMKELEEKIKNHKGNLILHLILPEYDKEIVEEVLKKLSEIKKKGYAKNITLGLDADLTEEEVDYALKLADEAGINLTVALPEE
B35: GBRAP_11_2763 (protein)
chain: KKEKKLEIAELAERLAEILDEILERGVDDEELLEEAREQLEKLTELVEKYGDEAEKKLAEILREEFEKALEDPENREEHLKNARTTARVLSGDFLLEAEE
B36: GBRAP_139_3743 (protein)
chain: AAAEKVRAEARALVAALAEDREAALAALADLLASLDEELRELAAKAIAEALLALDWDTAEAILEELARRLREEHGDEDGAEIVEAERNRTLALIAVREEA
B37: GBRAP_52_6164 (protein)
chain: MEERAEEYANRVLEAVRAGKEEELRKLLKEIAETLSEEEIVLMLEIIAERVPELTPEEAERVVEAALELEDILEEEGKNPELLSYQLARIAAAAYKRLQA
B38: GBRAP_160_4447 (protein)
chain: SEILEKLKKLVDETREEIKELIEGETHENRVVIVDVGFGELLLEFIENEEVSDELEDEVAEIVDETVEYLKENPDLTEEEIKELIDETAEKIKEAIEKHL
B39: GBRAP_39_5696 (protein)
chain: EEEEEAEDTFSYLEAIGAKEQVERGWSLEEVAKRTEELAAKFIAEHPEIAETLKELLKLAKEAGDLAILALYGLLLEAEKGLPLEEIKEKAEKLIAYLKS
B40: GBRAP_11_2639 (protein)
chain: KKELYKKAAELAEKAIKLLEELLKKGVDDEELLKKIRELLEKLEELVKKIPDEALQKEVEIAKELFEEMLKDKENAEKYAKLLLGQLRVLLAELEELIEE
B41: GBRAP_128_3582 (protein)
chain: SVAAARAYTRATLAAIRAAGPAERAALAAALAARLASLSPEERAAAADTIEELLPELSAEDLRALAAALRAADTSNSPELANLAAAVEVEALNKELEEEE

target: GABARAP, O95166; assay: median log2 fold change of GCK-ALFA target abundance (FLAG IP / Myc IP barcode read proportion) (log2 ratio); each designed protein is fused to an ALFA-tag nanobody in HEK293 cells to bring the named protein to FLAG-tagged glucokinase (GCK); Myc marks an untargeted standard; higher = target protein stabilised (more abundant); details: target protein: 3xFLAG-MCP-GCK-ALFA reporter; HEK293 landing pad (RPLP)
In short: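 Sequencing of reverse-transcribed, amplified circular RNA barcodes from anti-FLAG and anti-Myc immunoprecipitates provided the readout for an ALFA-nanobody-fused binder library recombined into HEK293 landing-pad cells. Those cells were induced with 2 μg mL^−1 doxycycline, transfected with a plasmid expressing a FLAG-tagged target and a Myc-tagged standard, and lysed after 48 h. Target abundance is the per-binder median log2 ratio of FLAG to Myc barcode read proportions. Only barcodes at a proportion of ≥10^−7 in both replicates and binders with ≥3 barcodes per replicate were kept, with a 10^−6 pseudocount added before the two replicates were pooled.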

Sequence of GABARAP, O95166 (O95166 whole entry, the tested form may be a part): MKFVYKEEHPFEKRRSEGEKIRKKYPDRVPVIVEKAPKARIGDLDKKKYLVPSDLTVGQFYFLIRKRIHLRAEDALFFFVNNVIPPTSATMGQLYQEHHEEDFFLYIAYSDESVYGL

Binder | median log2 fold change
B1 | 0.234
B2 | 0.326
B3 | 0.0126
B4 | -0.408
B5 | 0.117
B6 | -0.0412
B7 | -0.247
B8 | 0.204
B9 | 0.227
B10 | -0.372
B11 | -0.14
B12 | 0.223
B13 | 0.372
B14 | 0.373
B15 | -0.2
B16 | -0.0185
B17 | 0.251
B18 | 0.178
B19 | -0.0542
B20 | 0.2
B21 | 0.0364

Binder | median log2 fold change
B22 | 0.0518
B23 | -0.135
B24 | 0.126
B25 | 0.312
B26 | -0.356
B27 | 0.269
B28 | -0.181
B29 | 0.254
B30 | 0.202
B31 | 0.319
B32 | 0.181
B33 | 0.446
B34 | 0.412
B35 | 0.159
B36 | 0.221
B37 | -0.153
B38 | -0.273
B39 | 0.224
B40 | 0.0774
B41 | 0.164
